Assay results reported in PubChem BioAssay AID1963576 (National Center for Advancing Translational Sciences (NCATS), 2024).
Out of some 46,000 compounds screened, about 60 (0.1%) were called active. Not shown: some 3% with an inconclusive outcome. The call rests on the fitted dose curve; in most records, active means well fitted inhibition curve with a large enough effect; inconclusive means small, poorly fitted or top-dose-only effect; inactive means no such curve, though single readings can be large or run the other way. This is one part of the list.

Experiment: Primary qHTS assay for Inhibitors of ovarian cancer metastasis using an organotypic tumor microenvironment (TME) model. Further: nearly all actives have a fitted effect of over 65% in size.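 On activity change, negative = inhibition: plate controls were DMSO wells for no effect and tomatine positive control wells for full effect.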
Conditions: SKOV3ip1-GFP adhesion/invasion on 3D omental model, fluorescence; series mostly up to 45.8 µM; activity change, negative = inhibition: at the top concentration
In short: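 Adhesion/invasion was scored as fixed GFP-labeled SKOV3ip1 cell counts (488/509 nm), normalized to DMSO and tomatine controls. Cancer cells in serum-free medium, with four compound doses (0.36-46 umol/L), sat 2 hr at RT then 16 hr at 37 C on a 48 hr fibroblast/mesothelial/ECM culture.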

outcome, inactive:
COc1ccc(-c2nc3sc(CCNC(=O)c4cc(OC)c(OC)c(OC)c4)c(C)n3n2)cc1
Cc1cccc(C)c1NC(=O)C(NS(=O)(=O)c1ccc2c(c1)CCC(=O)N2)c1ccccc1 (stereo not drawn)
CCOc1ccc(C2c3[nH]c4ccccc4c3CCN2C(=O)CCc2ccccc2)cc1 (stereo not drawn)
Cc1ccc(Sc2c(C)nn(C(=O)COc3ccccc3Br)c2C)cc1
COc1cc(C(=O)NCCCc2nc3ccccc3n2CC(C)C)cc(OC)c1OC
CCOC(=O)c1sc2ncn(CC(=O)Nc3ccc(N(C)C)cc3)c(=O)c2c1C
CCOc1ccc(CC(=O)NCCc2csc(-c3ccc(C)cc3)n2)cc1
CCC1CN(C(=O)N2CCC(C(=O)NCCc3ccc(Cl)cc3)CC2)c2ccccc2O1 (stereo not drawn)
O=C1NCCN(Cc2ccc(F)cc2)C1=O
CCN(CC)c1ccc(NS(=O)(=O)c2ccc(-c3cnc(C4CC4)o3)cc2)c(C)c1
CCc1ccc(S(=O)(=O)c2cn(CC(=O)Nc3ccc(C)cc3)c3ccccc3c2=O)cc1
CCOc1ccccc1NC(=O)c1sc2nc3n(c(=O)c2c1C)CCCCC3
CCOc1ccc(CCNC(=O)c2ccc3c(Cl)c4c(nc3c2)CCCC4)cc1
CCOCCCNC(=O)C1CCN(c2nn3cc(-c4ccc(F)cc4)nc3s2)CC1
COc1cc(-c2noc(-c3ccc(NCc4ccccc4)c([N+](=O)[O-])c3)n2)cc(OC)c1OC
COc1ccc(Cl)cc1NC(=O)c1sc(-n2nc(C)c(Cc3ccccc3)c2C)nc1C
CCc1ccc(CN(Cc2ccco2)C(=O)c2ccc(OC)cc2)cc1
COc1ccc(N2CCN(c3oc(/C=C/c4ccc(F)cc4)nc3C#N)CC2)cc1
Cc1ccc(Cl)cc1N(C)C(=O)Cn1nc(Cc2cccnc2)c2ccccc2c1=O
Cc1ccccc1NC(=O)CSc1nnc(C)c(=O)[nH]1

Activity change, negative = inhibition, inactive:
CCOc1ccc(NC(=O)CSc2ncc3c(n2)-c2ccc(Cl)cc2N(Cc2ccccc2)S3(=O)=O)cc1 7.92%
COc1ccc(N2CCN(S(=O)(=O)c3ccc4oc(=O)c5ncn(C)c5c4c3)CC2)cc1 -18.8%
CCc1ccc(CNC(=O)CN2C(=O)c3cccnc3Oc3ccc(Cl)cc32)cc1 -3.16%
Cc1ccc(-c2nc(C)c(CCNC(=O)c3ccco3)s2)cc1 -7.13%
O=C(CSc1nc2ccccc2nc1Cc1ccc(Cl)cc1)N1CCc2ccccc21 9.17%
O=C(CSC1=Nc2ccccc2C2=NC(CC(=O)NC3CCCCC3)C(=O)N12)Nc1ccc(F)cc1 (stereo not drawn) -2.6%
CCN(c1cccc(C)c1)S(=O)(=O)c1nnc(NC(=O)C2CCCCC2)s1 2.51%
Cc1c2cnn(-c3ccccc3)c(=O)c2c(C)n1CCCC(=O)Nc1cc(F)ccc1F 9.8%
COC(=O)c1nc2n(n1)C(c1cccc(Cl)c1)C(C(=O)Nc1ccccc1OC)=C(C)N2 (stereo not drawn) 17.5%
Cc1ccc(C)c(N2CCN(S(=O)(=O)c3cc(Br)cc4c3N(C(=O)C3CC3)CC4)CC2)c1 0.308%
COc1ccc(C)cc1NC(=O)c1oc2ccc(S(=O)(=O)N3CCCCC3)cc2c1C 1.27%
NC(=O)c1c(NC(=O)c2nc(SCc3ccccc3F)ncc2Cl)sc2c1CCCC2 7.73%
Cc1ccc2[nH]c(CSc3nnc(NC(=O)COc4ccccc4)s3)cc(=O)c2c1 0.743%
COc1ccc(-n2c(SCC(=O)Nc3ccc(Cl)c(C)c3)nc3n[nH]c(C)c3c2=N)cc1 -7.47%
CCOc1ccc(CCNC(=O)c2sc3nc4n(c(=O)c3c2C)CCCC4)cc1OCC 8.39%
CCOC(=O)c1ccc(NC(=O)CCn2c(=O)c3cccn3c3ccccc32)cc1 -1.94%
O=C(C1CCN(S(=O)(=O)c2ccc(Br)s2)CC1)N1CCN(c2cccc(Cl)c2)CC1 2.3%
CCOc1ccc2nc(N3CCCC(C(=O)Nc4c(C)cccc4C)C3)sc2c1 (stereo not drawn) 14.6%
COc1ccc(OC)c(CNC(=O)c2nn(-c3ccc(OC)c(Cl)c3)c(=O)c3c2c2ccccc2n3C)c1 3.72%
CCCCn1cc(S(=O)(=O)c2ccc(C)c(C)c2)c(=O)c2cc(F)c(N3CCCC(C)C3)cc21 (stereo not drawn) -0.773%
CCS(=O)(=O)N1CCc2cc(C(=O)Nc3ccc(OC)c(Cl)c3)ccc21 -0.787%
O=C(Nc1nc2ccc(S(=O)(=O)N3CCCC3)cc2s1)c1cccc(F)c1 -4.84%
Cc1cc(C)cc(-n2ccnc2SCC(=O)Nc2nnc(C)s2)c1 -21.4%
COc1ccc(S(=O)(=O)n2nc(C)c(S(=O)(=O)N3CCC(C)CC3)c2C)cc1C 1.23%
COc1ccc(CCNS(=O)(=O)c2ccc3c(c2)CC(C)N3C(=O)C2CCC2)cc1OC (stereo not drawn) -1.23%
CCC(=O)Nc1c(C(=O)N2CCN(c3ccc(F)cc3)CC2)oc2ccccc12 -1.43%
COc1ccc(CCNC(=O)CCCn2c(=O)c3ccccc3n(Cc3cccc(Cl)c3)c2=O)cc1OC 18.7%
Cc1ccc(-c2nc3scc(CCNC(=O)Cc4ccc(Cl)cc4)n3n2)cc1 0.41%
CCOc1ccc(N(C(=O)CC(C)C)S(=O)(=O)c2ccc3c(c2)oc(=O)n3C)cc1 -9.41%
Cn1c(SCc2ccc(F)cc2)nc2ccc(C(=O)NCc3ccc(Cl)cc3)cc21 4.72%
COc1ccc(-c2noc(CN(C(=O)COc3cc(C)c(Br)c(C)c3)C(C)C)n2)cc1 0.923%
Cc1ccc(NC(=O)Cn2cc(C(=O)C3CC3)c3ccccc32)cc1 -3.81%
COc1ccc(NC(=O)Cn2nnc(C(=O)Nc3ccc(F)c(Cl)c3)c2N)cc1OC 2.89%
Cc1cccc(C)c1NC(=O)CSc1nc(-c2ccccc2)nc2c1Cc1c(CO)cnc(C)c1O2 5.98%
CCCn1c(SCc2nc(-c3ccc(OC)cc3OC)no2)nnc1-c1ccc(Cl)cc1 -0.976%
CCOC(=O)c1[nH]c2c(c1Cc1ccccc1)C(=O)CC(c1ccc(Cl)cc1)C2 (stereo not drawn) -1.51%
Cn1c(=O)c(=O)n(C)c2cc(N3CCOCC3)c(NS(=O)(=O)c3ccc(Cl)cc3)cc21 3.76%
COC(=O)c1scc(-c2ccc(C)cc2)c1S(=O)(=O)Nc1cc(Cl)ccc1C 2.82%
COCCOC(=O)c1c(C)n(S(=O)(=O)c2ccc(C)cc2)c2ccc(NS(=O)(=O)c3ccc(C)cc3)cc12 13%
COc1cccc(C(c2sc3nc(-c4ccco4)nn3c2O)N2CCC(O)CC2)c1 (stereo not drawn) 0.589%
Cc1ccc(CNC(=O)c2ccc3nc(N4CCCCC4)sc3c2)cc1 142%
O=S(=O)(NCCc1nnc2ccc(SCc3ccc(Cl)cc3Cl)nn12)c1ccccc1 -5.26%
CCOC(=O)c1ccc(NC(=O)c2c(NC(C)=O)sc3c2CCC(C)C3)cc1 (stereo not drawn) 1.88%
COc1ccc(F)cc1S(=O)(=O)NCCc1c(C)[nH]c2c(Cl)cccc12 2.98%
COc1ccc(OC)c(CCNC(=O)c2ccc3c(c2)N(Cc2ccc(C)cc2)CCS3)c1 -5.47%
CCc1cccc(OCC(=O)Nc2ccc(S(=O)(=O)Nc3cc(C)nc(C)n3)cc2)c1 -11.8%
Cc1cc(C)cc(NC(=O)CSc2nc3c(oc4ccccc43)c(=O)n2-c2ccccc2F)c1 -21.3%
COc1ccc2cc3cc(C(=O)NCc4ccc(C)cc4)oc3nc2c1 1.32%
CCCCOc1ccc(C(=O)Nc2nnc3n2CCS3)cc1 -29.3%
CCOC(=O)N1CCC(NC(=O)c2c(C)nn(-c3ccc(C)cc3)c2-n2cccc2)CC1 -1.75%
COc1ccc(Nc2cc(C(=O)NCCc3ccc(C)cc3)c3ccccc3n2)c(OC)c1 -0.148%
CCOc1ccc(NC(=O)CCNS(=O)(=O)c2ccc3c(c2)oc(=O)n3C)cc1 0.327%
Cc1ccc(C(=O)NCCc2ccc(Cl)cc2)cc1-n1c(C)nc2cccnc21 3.74%
CCOc1ccc(-c2nn(CC(=O)NC3CCCCC3)c3c2cnc2ccc(C)cc23)cc1 9.54%
CCn1c(=O)c2cc(C(=O)N(CCN(C)C)Cc3ccccc3)sc2c2ccccc21 1.84%
Cc1ccc(C)c(Cn2c3ccccc3c3cnn(CC(=O)NCCC4=CCCCC4)c(=O)c32)c1 8.4%
COc1ccccc1CNC(=O)c1ccc2c(c1)N(Cc1cccc(C)c1)C(=O)c1ccccc1S2(=O)=O -17.7%
COc1ccc(NC(=O)Cn2nnc3sc4c(c3c2=O)CCC(C)C4)c(OC)c1 (stereo not drawn) -0.336%
COCCCNC(=O)CSC1=Nc2ccccc2C2=NC(CCC(=O)NCc3ccccc3OC)C(=O)N12 (stereo not drawn) -14.8%
O=S(=O)(Nc1cccc(-c2ccc(N3CCCC3)nn2)c1)c1ccccc1C(F)(F)F 0.939%
Cc1nnc(SCc2ccccc2)c2cc3sccc3n12 -26.3%
CCOc1cc(C(=O)N2CC(=O)Nc3ccc(C)cc3C2c2ccccc2)cc(OCC)c1OCC (stereo not drawn) 28.2%
CCc1ccc(CNC(=O)CCC(=O)N2Cc3cccc(OC)c3Oc3ncccc32)cc1 3.77%
O=C(NCc1ccco1)C1CCN(C(=O)N2CCOc3ccccc32)CC1 -8.62%
CCOc1cccc(CNC(=O)c2ccc(N3CCCC3)c(NC(=O)NCc3ccc(F)cc3)c2)c1 19.6%
Nc1c(-c2nc(-c3cccs3)no2)nnn1-c1ccccc1Cl -0.61%
O=C(Nc1cccc(C(=O)OCc2cc(=O)n3nc(C4CC4)sc3n2)c1)c1ccccc1 -8.9%
Cc1cc(C)cc(OC(C)C(=O)Nc2nonc2-c2ccc(Br)cc2)c1 (stereo not drawn) -6.37%
CCOc1ccc(-c2nonc2NC(=O)c2oc3c(C)c(C)ccc3c2C)cc1OCC 0.331%
Cc1ccc(C)c(Cn2c3ccccc3c3cnn(CC(=O)NCCCc4ccccc4)c(=O)c32)c1 -1.83%
Cc1ccc(-n2nc(C)c(C(=O)NCCCN3CCN(c4ccc(F)cc4)CC3)c2-n2cccc2)cc1 -18.9%
Cc1ccccc1CS(=O)(=O)CC1Nc2ccc(C(=O)NCc3ccc(Cl)cc3)cc2NC1=O (stereo not drawn) 2.76%
CCN(CC)CCOC(=O)c1ccc(NC(=O)Cn2ncc3c([nH]c4ccc(C)cc43)c2=O)cc1 8.76%
